± gives the standard deviation of the averaged measurements. The list shows a part of the results.
system: PfAP2-EXP AP2 domain (GST-tagged); experiment: gcPBM binding intensity (ln(normalized median fluorescence intensity)); higher = stronger DNA binding
In short: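 Using an Agilent 4 × 180k array, primer-extended double-stranded 36-bp intergenic genomic probes and negative controls were exposed for 1 h to GST-fused P. falciparum DNA-binding domains expressed in E. coli. Binding was carried out in 1× PBS with 1% milk, 0.2 mg/ml BSA, 0.5% salmon testes DNA and 0.03% Triton X-100, and protein was detected with Alexa488 anti-GST antibody and a 488 nm scan. Binding intensity is the highest Masliner-normalised natural-log median intensity across replicate spots of either probe orientation.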

Sequence	gcPBM binding intensity (ln)
ATATATATTAATAATGCATGTGATATAAATTAATAT [TGCATGCA_site930]	8.81 ± 0.33
ATCTATATCTATAATACACACATCATAAAATATGTA [CACACA_site7230]	8.53 ± 0.27
ATATTATATATGTATAGTACATATTATAAGAAAAAT [XGTACX_site3457]	8.52 ± 0.37
CGGCACATTCTATATACACACATATAAATATATACA [CACACA_site566]	8.45 ± 0.42
TACAATTCGTAATACACACACATATAAATAAATATT [CACACA_site7720]	8.44 ± 0.38
TGATCAAGTAAGAAAAGTACAAAAAAAGTAAAAAAT [XGTACX_site6529]	8.95 ± 0.54
GTTCTTTCAAATTATACACACCAAAAAAAAAAAAAA [CACACA_site5660]	8.41 ± 0.33
GATATGTTTTATTATGTTGATGATAACAGGTAGTTT [CACACA_negctrl_site356]	8.46 ± 0.38
GCGTGTGTACAATGAGTGCATATCTAAAGGGAAGAT	9.3 ± 0.33
ATAAGTTTTTATTTTCTGCACTGTCGAATAATAGTT	8.71 ± 0.31
AAAAAAAACATACATACACACACATAAATATATATA [CACACA_site8864]	8.9 ± 0.4
ATGGATTATTTTTAAACATGCAGTAGTGATGAAAAA [TGCATGCA_site346]	8.74 ± 0.4
TATATTATAATATTCACACACTAACGTAAATCATTG [CACACA_site7318]	8.48 ± 0.42
TGGCAAAATAGGCACACACACATATACAGATATATT [CACACA_site4727]	8.57 ± 0.59
TCAATGAAATTAATATGTACATATTTTTATATAGTA [XGTACX_site7955]	8.32 ± 0.28
AAAAAATATATATATATATATATGTAATATTTTTTT [XGTACX_negctrl_site439]	8.36 ± 0.33
AAAACTATAAAAATTTTACACACTGTTTTTAAATAA [CACACA_site3667]	8.32 ± 0.38
AGTAGCAAATATTAAGTGCATATTATATAATGTGTA [GTGCAC_site9546]	8.64 ± 0.28
TTTTTTTTTTTTTTTTGTACATATACATATATATAT [XGTACX_site1981]	9.3 ± 0.11
ATAAATATGGCAGTACGTACGTATATTCATATTCAT [XGTACX_site8042]	8.56 ± 0.37

Sequence	gcPBM binding intensity (ln)
ATTAAAAAAAAAAAAAAAAAACAAAAAAAAAAAAAA [CACACA_negctrl_site1187]	8 ± 0.36
TGTTCAGTATGGCACACACACAACAAAATAAAAAAA [CACACA_site4368]	8.66 ± 0.47
GGTTTACCCTATAAATGTACTCATAAATTATATATA [XGTACX_site5771]	8.4 ± 0.3
ATACGAAATAGAAACACACATACAATAAATAAATAT [CACACA_site2017]	8.92 ± 0.42
TAAGTGATCGCATAATGTACATATTATTTATTATTT [XGTACX_site3061]	8.56 ± 0.24
CATACATACATACATACACACATATATAAATATATG [CACACA_site7028]	9.22 ± 0.18
GGAAGGATATAACATACACACACACCCATATATATA [CACACA_site9376]	8.95 ± 0.44
TACATTTAAAAAAAAACACACATATTTATATTTATA [CACACA_site7236]	8.01 ± 0.49
TTTCCTGGTCAAGGGGTTACGGTTACGTCCTCTTGC [CACACA_negctrl_site856]	8.34 ± 0.5
CATATACATAGACACACACACACATAAATAAATATA [CACACA_site6749]	8.66 ± 0.58
TTATGTATTTATTTATGTACTAATTGTATGCATATT [XGTACX_site6436]	8.7 ± 0.24
ATTTGTATATATAATTGTACGCATATTCTATACGAT [XGTACX_site7367]	8.46 ± 0.35
ATACTTTATAAATACTAAAGTGTATTTTGTAATATA [CACACA_negctrl_site1710]	8.16 ± 0.3
AAAAATATGAAAGTAACTAAGTTGTTATTGATAACA [CACACA_negctrl_site1608]	8.43 ± 0.29
ACGTTAGGCTTATTTGCACACTTGTATTATAATTTT [CACACA_site1317]	8.96 ± 0.38
ATATTATCACAAGGTGGTACACAAAAAAAAAAAAAA [XGTACX_site8224]	8.74 ± 0.26
ATAAATATGGAGCACACACACATAAACATACAGATA [CACACA_site4395]	8.82 ± 0.52
TACTTTCACATTAAATGTACGTATAGTTTCATTCTT [XGTACX_site8528]	8.78 ± 0.36
ATATTAAAAATATATACACACATATATATAAATATA [CACACA_site2257]	8.03 ± 0.3
TTTGGAGAATTCATAGTGCATTTATTTATTGTTAAT	8.41 ± 0.042

Sequence	gcPBM binding intensity (ln)
TATATTTAAGTACATAAATAAGCCCATTTACATACA [CACACA_negctrl_site1224]	8.48 ± 0.21
TTCTAAAATTATATAGTGCAATTATTTTATTTTTCT	8.28 ± 0.26
AAAAAAATAAAACACATACATATATGTATATATATA [GTGCAC_negctrl_site390]	9.075 ± 0.021
TAAATATATATATAAGTGCATTATATATATATATAA	8.58 ± 0.028
ATATGATAGTTTATATGTACATAAATAAATACATAC [XGTACX_site2917]	8.6 ± 0.27
ATTAATAATTATTATGGTACACATGTAACTACTCTC [XGTACX_site198]	8.76 ± 0.35
ATCTCTTACATATTCACACACATATAAATAACTACA [CACACA_site6816]	8.86 ± 0.41
AAAGAAAAAAAATAATGTACATATGTATTTGAGAAA [XGTACX_site3571]	8.69 ± 0.38
TGTAGAAGAACCCATGCATGCAGTATGAAAAAAAAA [TGCATGCA_site907]	9.8 ± 0.18
AAAAAAAGAAAAAAACGTACATGAAAATTTTTTGTT [XGTACX_site5135]	8.77 ± 0.27
ATAAATCCCAAAACCTTGCAAGACAACGTTTGATCA [CACACA_negctrl_site1327]	8.31 ± 0.34
CTATATAAAAAAATTGCACACATAAATATATACATA [CACACA_site8325]	8.35 ± 0.33
GAAACATACATTTTTTGTCCGTAAGTATTATAATAA [XGTACX_site3273]	8.59 ± 0.3
ATACATCAAGGACACACACACACACCCACACCCACA [CACACA_site8013]	8.64 ± 0.4
CACATAAAAATTGTGTTGCACTTTTATTCTTATATC	8.43 ± 0.23
ATTTTGCCTGACCCATGTACATATTATTTTTTGCAT [XGTACX_site2258]	9.41 ± 0.4
CTATGAATAGGAAAAAGTACTAAACCTTTATATATA [XGTACX_site5022]	8.26 ± 0.29
TCAAATATTCATAAATGTACATTTATTTTTCTCCTT [XGTACX_site5827]	8.57 ± 0.44

Reference: the supplement of paper PMC11417369
